Data published in PubChem BioAssay AID504333 (National Center for Advancing Translational Sciences (NCATS), 2011).
Hit rate of the full screen: of about 360,000 compounds, about 16,000 (4.4%) were called active. The inconclusive results got no clear call from the source; some entries with a clear call stand among them for comparison. Calls follow the shape of the dose curve; as a rule, active = well fitted inhibition curve with a large enough effect; inconclusive = small, poorly fitted or top-dose-only effect; inactive = no such curve, though single readings can be large or run the other way. Potencies of inconclusive entries are doubtful fits and often do not repeat.

Molecular target: Bromodomain adjacent to zinc finger domain protein 2B (Homo sapiens) (UniProt Q9UIF8)
Assay: qHTS Assay for Inhibitors of BAZ2B; also: nearly all actives have a fitted effect of over 60% in size
Details: AlphaScreen BAZ2B-H3K14Ac peptide displacement; series mostly up to 114 µM
Method in brief: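 Compounds, titrated to a top concentration of 110 uM, were incubated 30 min at room temperature with preformed BAZ2B/acetyl-K14 H3 peptide complex (50 nM each). Proximity signal was measured by AlphaScreen after 20 min with beads.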
Potency is read from the fitted curve at half-maximal effect; tags tell the direction and shape of the fitted curve.

UniProt Q9UIF8, sequence (Q9UIF8 whole entry, looked up, the tested form may be a part): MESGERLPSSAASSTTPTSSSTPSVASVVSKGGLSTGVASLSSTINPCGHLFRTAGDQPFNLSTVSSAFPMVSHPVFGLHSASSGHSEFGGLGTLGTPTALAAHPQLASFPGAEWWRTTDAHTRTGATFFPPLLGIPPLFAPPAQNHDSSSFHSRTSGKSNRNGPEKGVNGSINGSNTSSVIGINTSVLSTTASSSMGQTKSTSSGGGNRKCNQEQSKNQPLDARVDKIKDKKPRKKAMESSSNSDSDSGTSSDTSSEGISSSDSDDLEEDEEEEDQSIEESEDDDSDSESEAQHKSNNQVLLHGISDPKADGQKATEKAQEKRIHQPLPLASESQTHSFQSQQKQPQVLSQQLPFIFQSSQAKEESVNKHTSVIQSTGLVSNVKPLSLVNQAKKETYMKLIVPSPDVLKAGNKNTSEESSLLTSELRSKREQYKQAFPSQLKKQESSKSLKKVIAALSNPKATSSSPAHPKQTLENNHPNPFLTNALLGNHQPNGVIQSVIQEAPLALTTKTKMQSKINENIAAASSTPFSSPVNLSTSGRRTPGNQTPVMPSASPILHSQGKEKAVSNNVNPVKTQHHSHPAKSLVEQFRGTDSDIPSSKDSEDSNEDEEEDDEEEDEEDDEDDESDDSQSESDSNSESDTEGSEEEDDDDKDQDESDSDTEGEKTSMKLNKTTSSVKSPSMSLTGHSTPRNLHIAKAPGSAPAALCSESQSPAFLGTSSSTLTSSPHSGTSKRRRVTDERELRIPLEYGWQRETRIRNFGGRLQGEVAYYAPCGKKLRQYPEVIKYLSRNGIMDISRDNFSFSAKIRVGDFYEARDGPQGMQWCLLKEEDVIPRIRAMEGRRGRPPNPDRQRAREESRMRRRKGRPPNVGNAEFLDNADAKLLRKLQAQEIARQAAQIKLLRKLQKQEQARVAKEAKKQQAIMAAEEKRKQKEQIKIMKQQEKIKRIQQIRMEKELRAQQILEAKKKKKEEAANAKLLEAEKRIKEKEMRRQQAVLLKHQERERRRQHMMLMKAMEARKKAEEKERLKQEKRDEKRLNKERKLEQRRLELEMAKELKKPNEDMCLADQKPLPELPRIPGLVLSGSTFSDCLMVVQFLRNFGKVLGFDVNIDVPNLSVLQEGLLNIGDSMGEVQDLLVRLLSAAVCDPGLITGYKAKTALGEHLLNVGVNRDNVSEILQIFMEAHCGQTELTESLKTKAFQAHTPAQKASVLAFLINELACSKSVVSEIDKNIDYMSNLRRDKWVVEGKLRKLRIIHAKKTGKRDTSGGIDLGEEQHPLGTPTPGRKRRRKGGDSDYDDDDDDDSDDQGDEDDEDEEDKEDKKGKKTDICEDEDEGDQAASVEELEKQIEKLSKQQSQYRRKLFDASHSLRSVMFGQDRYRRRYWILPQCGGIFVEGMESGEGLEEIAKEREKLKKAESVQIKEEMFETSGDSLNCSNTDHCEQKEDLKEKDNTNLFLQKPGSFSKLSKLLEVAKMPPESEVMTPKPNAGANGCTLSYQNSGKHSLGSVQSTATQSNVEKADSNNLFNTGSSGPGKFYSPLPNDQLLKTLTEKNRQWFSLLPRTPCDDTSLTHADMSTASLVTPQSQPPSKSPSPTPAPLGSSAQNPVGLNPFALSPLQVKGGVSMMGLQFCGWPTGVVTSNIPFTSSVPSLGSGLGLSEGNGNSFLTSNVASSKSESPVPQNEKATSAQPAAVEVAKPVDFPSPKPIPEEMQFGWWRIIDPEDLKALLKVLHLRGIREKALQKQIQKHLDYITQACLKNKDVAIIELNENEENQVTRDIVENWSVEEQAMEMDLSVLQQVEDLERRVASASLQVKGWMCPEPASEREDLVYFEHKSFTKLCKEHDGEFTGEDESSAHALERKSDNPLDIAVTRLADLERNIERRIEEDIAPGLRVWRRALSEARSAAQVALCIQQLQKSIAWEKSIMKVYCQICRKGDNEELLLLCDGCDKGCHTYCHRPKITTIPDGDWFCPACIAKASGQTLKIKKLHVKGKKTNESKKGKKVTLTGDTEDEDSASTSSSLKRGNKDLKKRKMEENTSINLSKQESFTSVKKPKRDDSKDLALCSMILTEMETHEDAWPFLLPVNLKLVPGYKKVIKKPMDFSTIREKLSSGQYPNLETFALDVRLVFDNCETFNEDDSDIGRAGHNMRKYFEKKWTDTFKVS

| SMILES | Potency |
| --- | --- |
| COC(=O)/C(=C/Nc1ccc(O)cc1)[N+](=O)[O-] | inactive |
| Nc1scc2c(C(=O)O)nn(-c3ccccc3)c(=O)c12 | inconclusive: 89.1 µM [inhibitor, single point] |
| CC1=NN(c2nc(-c3ccc(C)cc3)cs2)C(=O)C1N=Nc1cccc(O)c1 (stereo not drawn) | inconclusive: 14.1 µM [inhibitor, partial curve] |
| CCOCCCn1c(SCC(=O)Nc2ccc(C(C)C)cc2)nc2c(sc3ccccc32)c1=O | inactive |
| Cc1ccc(CNc2ccc(N3CCOCC3)c(Cl)c2)cc1 | active: 39.8 µM |
| Cc1onc(-c2ccccc2)c1C(=O)OCc1nnc(-c2ccccc2)o1 | inactive |
| Cc1ccc(Cc2nc3ccccc3nc2SCC(=O)NCCC(C)C)cc1 | inactive |
| O=C(N/C(=C/c1cccc([N+](=O)[O-])c1)C(=O)N1CCCCCC1)c1cccs1 | inactive |
| CCn1nc([N+](=O)[O-])c(C(C#N)c2nc3cc(C(F)(F)F)ccc3s2)c(Cl)c1=O (stereo not drawn) | active: 11.2 µM |
| O=C(Nc1ccc(NC(=O)c2ccco2)c(Cl)c1)c1ccc2c(c1)OCCO2 | inconclusive: 79.4 µM [inhibitor, partial curve] |
| CCOc1ccc(NC(=O)Cn2cc(C(=O)c3ccc(CC)cc3)c(=O)c3cc(C)ccc32)cc1 | inconclusive: 89.1 µM [inhibitor, single point] |
| CCCCn1c(=O)[nH]c(=O)c2c1nc(Cn1ncc(Cl)c(Cl)c1=O)n2CCC | inactive |
| c1ccc(-c2ccccc2OCCCN2CCCCCC2)cc1 | active: 56.2 µM |
| Cc1ccc(-n2[nH]c(C)c(/C=N/NC(=O)c3ccc(O)cc3O)c2=O)cc1 | active: 28.2 µM |
| Cc1cc(OCCN2CCCC2)cc(C(C)C)c1 | inconclusive: 100 µM [inhibitor, single point] |
| COC(=O)CCCC1=CC2=CC(=O)C(C)(OC(=O)c3cccs3)C(=O)C2=CN1Cc1ccccc1 (stereo not drawn) | inactive |
| Cc1cc(NC(=O)CN2CCCCC2)no1 | active: 56.2 µM |
| COc1ccc(N2CCN(C3CCCCC3NS(=O)(=O)c3ccc(Cl)cc3)CC2)cc1 (stereo not drawn) | active: 10 µM |
| COc1cc2c(=O)c(S(=O)(=O)c3ccc(F)cc3)cn(Cc3ccc(Cl)cc3)c2cc1OC | inactive |
| COc1ccc(OCC(=O)Nc2ccc3c(c2)nc(CCn2ccccc2=O)n3C)cc1 | inactive |
| CCOC(=O)c1nn(-c2ccc(C)c(C)c2)c(=O)c2c(N)scc12 | active: 56.2 µM |
| COc1ccc(-n2cc(CNCCc3ncc(C)[nH]3)c(-c3ccccc3Cl)n2)cc1 | inconclusive: 50.1 µM [inhibitor, partial curve] |
| N#Cc1cc(C(=O)c2cc(Br)ccc2O)cn(C2CC2)c1=O | inconclusive: 79.4 µM [inhibitor, single point] |
| CC1CC(C)CN(CC(O)COCc2ccccc2)C1 (stereo not drawn) | inactive |

| SMILES | Potency |
| --- | --- |
| CCC(Sc1ncccc1C(=O)Oc1cccc([N+](=O)[O-])c1)C(=O)Nc1ccccc1OC (stereo not drawn) | inconclusive: 39.8 µM [inhibitor, partial curve] |
| COc1cccc(NC(=O)CN(C)C(=O)CCc2nc3sc4c(c3c(=O)[nH]2)CCCC4)c1 | inconclusive: 79.4 µM [inhibitor, single point] |
| COc1ccc(OCC(=O)Nc2cccc(-c3nc4ccccc4o3)c2)cc1 | inconclusive: 89.1 µM [inhibitor, single point] |
| CCOC(=O)c1c(NC(=O)c2cccnc2)sc(C)c1C | inactive |
| CCN(C(=O)CN1CCC(C)CC1)c1c(N)n(Cc2ccccc2)c(=O)[nH]c1=O | inactive |
| O=C(C(c1ccccc1)c1ccccc1)N1CCN(Cc2ccncc2)CC1 | inconclusive: 89.1 µM [inhibitor, single point] |
| Cc1ccccc1-c1cc(C(=O)Nc2sc(C)c(C)c2C(N)=O)c2ccccc2n1 | inconclusive: 50.1 µM [inhibitor, partial curve] |
| Cc1cc(C)n2ncnc2n1 | inconclusive: 100 µM [inhibitor, single point] |
| Cc1cc(C)c2cc(C(=O)N3CCC(C(=O)c4ccc(F)cc4)CC3)[nH]c2c1 | inactive |
| O=C1CC(C(=O)O)S/C(=N\NC(=O)c2ccccc2)N1 (stereo not drawn) | active: 50.1 µM |
| O=C(COC(=O)CCc1c[nH]c2ccccc12)Nc1cc([N+](=O)[O-])ccc1Cl | inconclusive: 39.8 µM [inhibitor, full curve] |
| NC(=S)N/N=C/C=C/c1ccccc1 | inconclusive: 89.1 µM [inhibitor, single point] |
| CCn1cc(/C=N\NC(=O)c2ccccc2Cl)cn1 | inactive |
| Cc1ccc(N2NC(=O)/C(=C/C=C/c3ccco3)C2=O)cc1C | inconclusive: 22.4 µM [inhibitor, partial curve] |
| O=[N+]([O-])c1ccccc1S(=O)(=O)NCCC1=CCCCC1 | inconclusive: 89.1 µM [inhibitor, single point] |
| CCOC(=O)Cc1csc(NC(=O)c2ccc([N+](=O)[O-])cc2[N+](=O)[O-])n1 | inconclusive: 79.4 µM [inhibitor, partial curve] |
| CCn1cc(C(=O)O)c(=O)c2cnc(N3CCN(C(=S)Nc4ccc(F)cc4)CC3)nc21 | inactive |
| Cc1cc(C(=O)COC(=O)c2cc(Cl)ccc2N)c(C)n1Cc1ccco1 | inconclusive: 89.1 µM [inhibitor, single point] |
| Cc1cccc(NC(=O)c2cc(S(=O)(=O)N3CCc4ccccc43)ccc2F)c1C | inactive |
| CC(=O)Nc1ccc(S(=O)(=O)Oc2ccc(/C=N/N=C3/NC(=O)C(CC(=O)O)S3)cc2)cc1 (stereo not drawn) | active: 50.1 µM |
| CCOC(=O)Cc1csc(NS(=O)(=O)c2cc(Cl)ccc2Cl)n1 | inconclusive: 79.4 µM [inhibitor, single point] |
| COc1cccc(OCc2cc(C(=O)N3CCNC(=O)C3Cc3ccccc3)no2)c1 (stereo not drawn) | inactive |
| O=c1c2cc(NC(=S)NC3CCN(Cc4ccccc4)CC3)ccc2nc2n1CCCCC2 | inconclusive: 79.4 µM [inhibitor, single point] |
| COc1ccc(NC(=S)NCCc2c[nH]c3ccc(OC)cc23)c(OC)c1 | active: 44.7 µM |
